Measured values reported in PubChem BioAssay AID445 (National Center for Advancing Translational Sciences (NCATS), 2006).
Hit rate of the full screen: of about 110,000 compounds, about 40 (0.04%) were called active. Inconclusive means that the source gave no clear call. Such entries were picked first, then a sample of the others. Calls follow the shape of the dose curve; as a rule, active = well fitted curve in the direction sought with a large enough effect in the signal ratio (not every such curve was filed as active); inconclusive = small, poorly fitted or top-dose-only effect, or a change in a side signal; inactive = flat fitted curve, though single readings scatter; the % refers to the signal ratio. A potency beside an inconclusive call is a rough fit, not a confirmed value.

test: IkB Signaling; conditions: ABC-DLBCL IkBa-CBG/CBR dual luciferase ratio (green luciferase fused to IkBa over red control in OCI-Ly3 lymphoma cells), 4 h; IkBa stabilization activation: at 57.1 µM (top of the series), scaled: untreated 0%, proteasome inhibitor 100% unless noted;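 as to IkBa stabilization activation: 0% = basal untreated cells and 100% = reference inhibitor full response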
How it was run: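 Curves were fitted separately to fusion (green), unfused (red) and ratio luminescence, then classed by r2, magnitude and activity. Cells: OCI-Ly3, 4 h compound plus doxycycline at 37C; 10 uM MG-132 defined full response.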
Potency is read from the fitted curve at half-maximal effect.

Compound | IkBa stabilization activation | Potency
COc1ccccc1N1CCN(C(=O)CCNS(=O)(=O)c2ccc3c(c2)CCC(=O)N3)CC1 | inconclusive: 15.4% [signal inhibitor] | 
Cc1ccc(C(=O)N2c3nc(-c4ccco4)nn3C3(CCCCC3)[C@@H]3CCCC[C@@H]32)cc1 | inconclusive: 0.0282% [signal inhibitor] | 
CC1CCN(S(=O)(=O)c2cccc(C(=O)NC3CCS(=O)(=O)C3)c2)CC1 (configuration not stated) | inconclusive: -4.33% [signal inhibitor] | 
COc1ccc(C)cc1NC(=O)CSc1nnc(COc2ccc(C)cc2)n1Cc1ccco1 | inconclusive: 0.746% [signal inhibitor] | 
CCCCN(C)CCNC(=O)c1cc(-c2ccc(Cl)s2)nc2ccccc12 | inconclusive: -0.579% [signal inhibitor] | 
COc1ccc(-c2cccc(NS(=O)(=O)c3ccc(NC(C)=O)cc3)c2)nn1 | inconclusive: 5.25% [signal inhibitor] | 
CCOC(=O)Nc1sc2c(c1C(=O)OCC)CCC2 | inactive | 
O=C(O)CCN1C(=S)CSC1=S |  | inconclusive: 3.98 µM [signal inhibitor, partial curve]
O=C(NCc1ccco1)c1cc(S(=O)(=O)N2CCOCC2)c(Cl)cc1Cl | inconclusive: 2.08% [signal activator] | 
CCOC(=O)c1c(-c2ccccc2)csc1NC(=O)c1nc(SCC)ncc1Cl | inconclusive: -2.81% [signal inhibitor] | 
CCCCCNC(=O)C1CCC(Cn2c(=O)c3sccc3n(CC)c2=O)CC1 (configuration not stated) | inactive | 
CC(=O)Nc1ccc(NC(=O)c2ncoc2-c2ccco2)cc1 | inconclusive: 1.34% [signal inhibitor] | 
Cc1cccc(CC(=O)N2CC(=O)Nc3ccc(F)cc3C2c2ccccc2)c1 (configuration not stated) | inconclusive: 1.55% [signal inhibitor] | 
NC(N)=NC(N)=Nc1cccc(Cl)c1 | inconclusive: 0.622% [signal inhibitor] | 
Cc1ccc(CNC(=O)CSc2c(C(C)C)cnc3c2c(=O)n(C)c(=O)n3C)cc1 | inconclusive: -0.145% [signal inhibitor] | 
CCc1ccccc1NC(=O)Nc1ccc2snnc2c1 | inconclusive: 4.87% [signal inhibitor] | 
CCC(CC)C(=O)N1CCc2cc(OC)c(OC)cc2C1COc1ccc(F)cc1 (configuration not stated) | inconclusive: -1.25% [signal inhibitor] | 
C[C@@](N)(Cc1ccc(O)c(O)c1)C(=O)O | inactive | 
Cc1cccc(-n2ncc(C(=O)NCc3ccc4c(c3)OCO4)c2C2CCN(C(=O)OC(C)(C)C)CC2)c1 | inconclusive: -4.52% [signal inhibitor] | 
Cc1cccc(-c2noc(CN(C(=O)c3c(-c4ccccc4Cl)noc3C)C(C)C)n2)c1 | inconclusive: 1.7% [signal inhibitor] | 
CCc1ccc(NS(=O)(=O)c2ccc3[nH]c4c(c3c2)CCCCCC4)cc1 | inactive | 
O=C1c2ccccc2NC2CCCCC12 (configuration not stated) | inactive | 
O=C(CSc1nc(Nc2ccc(F)c(F)c2)c2ccccc2n1)c1ccc(Cl)cc1 | inconclusive: 3.05% [signal inhibitor] | 

Compound | IkBa stabilization activation | Potency
CC1=C(C(=O)Nc2ccccc2)C(c2ccc(O)cc2)n2nc(-c3ccc(Cl)cc3)nc2N1 (configuration not stated) | inconclusive: -6.21% [signal inhibitor] | 
Cc1oc2ccc(O)c(CN3CCC(C)CC3)c2c1C(=O)Nc1ccccc1 | inconclusive: 0.0368% [signal inhibitor] | 
Oc1c(CN2CCCCC2)cc(COCc2ccccc2)c2cccnc12 | inactive | 
CCn1c(CN2CCCCC2)nc2cc(NC(=O)COc3ccc(C(C)(C)C)cc3)ccc21 | inconclusive: -0.301% [signal inhibitor] | 
Cc1cccc(N2CCN(C(=O)c3ccc(NS(=O)(=O)c4c(C)noc4C)cc3)CC2)c1C | inconclusive: 13.1% [signal inhibitor] | 
c1ccc(-c2nnc3sc(-c4ccncc4)nn23)cc1 | inactive | 
CCCN1C(=O)C(Cc2nc3ccccc3c(=O)n2CC)c2cc(Br)ccc21 (configuration not stated) | inconclusive: 2.41% [signal inhibitor] | 
Cc1ccc(CN2C(=O)C3(c4ccccc42)N(c2ccc(C)c(Cl)c2)C(=O)CS3(=O)=O)cc1 (configuration not stated) | inconclusive: 0.753% [signal inhibitor] | 
O=C(CCC1N=C2c3ccccc3N=C(SCc3cccc(Cl)c3)N2C1=O)NCCc1ccccc1 (configuration not stated) | inconclusive: 8.05% [signal inhibitor] | 
CCOC(=O)CSc1cccc2cccnc12 |  | inconclusive: 25.1 µM [rising, single point]
COc1ccc(Br)cc1CNC(=O)CSc1n[nH]c(-c2ccccc2)n1 | inconclusive: -0.447% [signal inhibitor] | 
Cc1nn(Cc2ccccc2)c(Cl)c1C(=O)OCc1nnc(-c2ccc(Cl)cc2)o1 | inconclusive: 2.15% [signal inhibitor] | 
O=S(=O)(c1ccccc1)N1CCC2(CCCN(c3ccncc3)C2)CC1 | inactive: 6.12% [at 11.4 µM, scaled: untreated 0%, proteasome inhibitor 100%] | 
Cc1cccc(C)c1NC(=O)c1nc(SC(C)C)ncc1Cl | inconclusive: 0.672% [signal inhibitor] | 
COCCCNC(=O)C1CCN(C(=O)c2ccc(-n3ccc4ccccc43)s2)CC1 |  | inconclusive: 0.501 µM
Cc1cc(C)cc(N(CC(=O)Nc2ccc(C)cc2Cl)S(=O)(=O)c2c(C)[nH]c(=O)[nH]c2=O)c1 | inconclusive: 6.69% [signal inhibitor] | 
Cc1ccccc1CNC(=O)Cc1csc2ccccc12 | inconclusive: -0.901% [signal inhibitor] | 
O=C(O)c1ccc(N[C@H](c2ccccc2)c2ccc3cccnc3c2O)cc1 | inactive: 6.24% [at 11.4 µM, scaled: untreated 0%, proteasome inhibitor 100%] | 
O=c1c(NCCc2ccc(Cl)cc2)nccn1-c1ccccc1 | inactive | 
COc1ccc(NC(=O)CSc2nncs2)cc1OC | inactive | 
COc1ccc(OC)c(CCNC(=O)c2cc3cccc4c3n2CCS4)c1 | inconclusive: -0.423% [signal inhibitor] | 
Cc1ccc(C)c(N2CCN(S(=O)(=O)c3ccc(F)c(C(=O)Nc4ccc(Cl)cc4Cl)c3)CC2)c1 | inconclusive: 1.06% [signal inhibitor] | 
CCN(Cc1ccccc1)C(=O)CCS(=O)(=O)c1cc(Br)cc2c1N(C(=O)C1CC1)CC2 | inconclusive: 2.13% [signal inhibitor] | 

Compound | IkBa stabilization activation | Potency
CCOc1ccc(-c2nc(C#N)c(N3CCN(Cc4ccccc4)CC3)o2)cc1 | inactive | 
CCOC(=O)c1c(C)oc2ccc(N(C(=O)c3ccncc3)S(=O)(=O)c3ccc(F)cc3)cc12 |  | inconclusive: 25.1 µM [signal inhibitor]
COc1ccccc1CNc1ccnc(-c2ccccc2OC)n1 | inactive: 2.65% [at 11.4 µM, scaled: untreated 0%, proteasome inhibitor 100%] | 
COc1cccc(NC2=CC(c3ccc(C(C)C)cc3)N(c3cccc(OC)c3)C2=O)c1 (configuration not stated) | inconclusive: 8.91% [signal inhibitor] | 
CCNc1ncc2nc(-c3cc(F)cc(F)c3)c(=O)n(C[C@H]3CCCO3)c2n1 | inactive: -0.319% [at 11.4 µM, scaled: untreated 0%, proteasome inhibitor 100%] | 
COc1ccc(C)cc1NS(=O)(=O)c1cc(Br)cc2c1N(C(C)=O)C(C)C2 (configuration not stated) | inconclusive: 4.51% [signal inhibitor] | 
COc1ccc(/C=N/n2c(SC)nnc2-c2ccccc2)cc1C | inconclusive: -0.949% [signal inhibitor] | 
Cc1c(C(=O)N(Cc2cccc(Cl)c2)Cc2ccco2)oc2ccccc12 | inconclusive: -0.813% [signal inhibitor] | 
O=C(CN1CCN(c2nc(-c3ccc(Cl)cc3)cs2)CC1)NCc1ccco1 | inconclusive: 2.67% [signal inhibitor] | 
Cc1cccc(Cn2cnc3c(nnn3Cc3ccccc3F)c2=O)c1 | inactive | 
COc1cccc(CNC(=O)CSc2nnc(C)c3c(C)n(-c4ccccc4)nc23)c1 | inconclusive: 0.844% [signal inhibitor] | 
Cc1ccccc1Nc1c(-c2ccc(O)cc2)nc2c(C)cccn12 | inconclusive: 13% [signal inhibitor] | 
CCC(C(=O)Nc1ccc(F)cc1F)n1nc(-c2ccccc2)c2c(c1=O)CCCC2 (configuration not stated) | inconclusive: -1.43% [signal inhibitor] | 
COc1ccc(NC(=O)c2ccco2)cc1NC(=O)COc1cc(C)ccc1C(C)C | inactive | 
COc1ccc(Cl)cc1S(=O)(=O)N1CCC(c2ccncc2)CC1 | inconclusive: 2.3% [signal inhibitor] | 
CC(=O)N1c2ccccc2CC1C(=O)N1CCN(c2cc(Cl)ccc2C)CC1 (configuration not stated) | inconclusive: 2.49% [signal inhibitor] | 
CC(C)CNC(=O)O | inactive: 1.34% [at 11.4 µM, scaled: untreated 0%, proteasome inhibitor 100%] | 
O=C(c1cccn1-c1nnc(N2CCCC2)s1)N1CCN(c2ccc(F)cc2)CC1 | inconclusive: 1.24% [signal inhibitor] | 
Cc1cccc(OCC(=O)NCc2ccc3c(c2)CCN3C(=O)c2ccc(Cl)cc2)c1 | inconclusive: 4.38% [signal inhibitor] | 
Cc1ccc(-c2noc(C3CCCN(C(=O)c4ccc(F)cc4F)C3)n2)cc1 (configuration not stated) | inconclusive: 4.55% [signal inhibitor] | 
COc1ccc(-c2nnc(SCC(=O)Nc3ccc(C)c(Cl)c3)nc2-c2ccc(OC)c(OC)c2)cc1OC | inactive | 
